Reference: US11365205B2 (Aurigene Discovery Technologies Limited, priority 2018, dated 2022)

Molecular target: PRMT5/MEP50 Complex (Homo sapiens (Human), UniProt O14744)
Assay: PRMT5 inhibition based on TR-FRET assay
Format: biochemical
Conditions: 32 nM PRMT5:MEP50, 50 nM Histone-H4 peptide, 1 μM SAM
Description: PRMT5 Inhibition Based on TR-FRET Assay:
Protein arginine methyltransferase 5 (PRMT5) is a type II arginine methyltransferase that catalyze mono- and symmetric demethylation on arginine residues of histone or non-histone proteins in presence of S-adenosylmethionine (AdoMet or SAM) a cofactor responsible for donating the methyl group. PRMT5 is reported to be overexpressed in several human cancers. To identify compounds that inhibit the PRMT5 and decrease its activity, a TR-FRET based assay has been established. Time-resolved fluorescence resonance energy transfer (TR-FRET) HTS assays are homogeneous proximity assays where the interaction of two dye-labeled binding partners is detected by the energy transfer between a donor and an acceptor dye and the subsequent light emission by the acceptor dye. PRMT5 catalyzes Histone H4 peptide which is biotin tagged to the Lysine amino acid at carboxyl end, in presence of S-adenosyl-1-methionine (SAM) to methylate the peptide. The antibody specific to mono methylated H4 peptide (H4R3) with Ig conjugate binds to the methylated peptide, indirectly binding to the Europium lanthanide. […]
The compound dilutions were prepared as 7.5% DMSO stock solutions in assay buffer. […] The plates were then read on Victor-3 with Excitation at 340 nm and Emissions collected at 615 and 665 nm in TR-FRET protocol. […]

UniProt O14744, sequence (O14744 whole entry): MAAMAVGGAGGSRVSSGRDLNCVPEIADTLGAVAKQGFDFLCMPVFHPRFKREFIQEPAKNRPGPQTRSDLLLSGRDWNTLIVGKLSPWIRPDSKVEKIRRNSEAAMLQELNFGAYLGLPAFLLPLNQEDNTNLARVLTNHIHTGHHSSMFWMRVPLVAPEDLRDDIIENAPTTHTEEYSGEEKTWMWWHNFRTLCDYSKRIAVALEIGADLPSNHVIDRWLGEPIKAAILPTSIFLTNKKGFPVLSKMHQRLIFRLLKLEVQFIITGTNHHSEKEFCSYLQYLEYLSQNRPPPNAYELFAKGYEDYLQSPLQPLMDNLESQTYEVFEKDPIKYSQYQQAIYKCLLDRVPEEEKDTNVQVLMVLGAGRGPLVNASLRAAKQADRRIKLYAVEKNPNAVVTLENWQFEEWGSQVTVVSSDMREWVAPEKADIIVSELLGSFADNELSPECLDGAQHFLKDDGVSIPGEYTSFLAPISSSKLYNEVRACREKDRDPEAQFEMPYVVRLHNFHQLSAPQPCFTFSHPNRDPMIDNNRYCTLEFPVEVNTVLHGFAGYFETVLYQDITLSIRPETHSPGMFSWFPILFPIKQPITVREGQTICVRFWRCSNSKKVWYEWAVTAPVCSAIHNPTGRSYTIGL
UniProt O14744, sequence (Q9BQA1 whole entry partner): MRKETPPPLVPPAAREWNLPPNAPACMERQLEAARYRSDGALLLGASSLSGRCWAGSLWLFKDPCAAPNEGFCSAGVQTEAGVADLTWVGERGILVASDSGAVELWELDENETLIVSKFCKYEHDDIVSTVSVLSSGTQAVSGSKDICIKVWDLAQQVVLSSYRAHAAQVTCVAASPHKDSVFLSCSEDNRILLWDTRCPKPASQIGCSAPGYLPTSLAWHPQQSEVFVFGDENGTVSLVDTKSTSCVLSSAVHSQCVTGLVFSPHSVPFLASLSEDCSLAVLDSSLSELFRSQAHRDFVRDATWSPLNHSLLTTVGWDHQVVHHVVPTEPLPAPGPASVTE

IC50 [nM]	Structure (SMILES)
520	Cc1ccc(CN2CC(C)(C)N(CC(O)CN3CCc4ccccc4C3)C2=O)cn1 (centres unmarked) [Example 7, 3-(3-(3,4-dihydroisoquinolin-2(1H)-yl)-2-hydroxypropyl)-4,4-dimethyl-1-((6-methylpyridin-3-yl)methyl)imidazolidin-2-one]
210	Cc1ccc(CN2CC3(CCCC3)N(CC(O)CN3CCc4ccccc4C3)C2=O)cn1 (centres unmarked) [Example 8, 1-(3-(3,4-dihydroisoquinolin-2(1H)-yl)-2-hydroxypropyl)-3-((6-methylpyridin-3-yl)methyl)-1,3-diazaspiro[4.4]nonan-2-one]
